# Measured values from the supplement of paper PMC8728848.
# The list shows a part of the results.
# B1: PX14367A-bth-493-35-493 (Bacteroides thetaiotaomicron) (protein)
# chain: VSSDQVAVAGNAERLFNGAWYNLFEYGTTYANIGYRALQCQDDMMASDVVSRPKYGFNSSYQFNDVAIPSDGRTSFAWYLIYKTIDNCNTAISIKGDSEELRQAQGQALALRAFCYLHLVQHYQFTYLKDKDAPCVPIYTEPTTSGTKPKGKSTVAQVYQQIFDDLNLAQDYLTNYVRKGDGQKFKPNTDVVNGLMARAYLLTGQWGEAAKAAEAARKGYSLMTTTAEYEGFNNISNKEWIWGSPQTLSQSDASYNFYYLDATYVGAYSSFMADPHLMDTFVKGDIRLPLFQWMREGYLGYKKFHMRSDDTADLVLMRSAEMYLIEAEAKVRDGVALDQAVAPLNTLRTARGVGNYDVTGKTKEQVIDEILMERRRELWGEGFGITDVLRNQKAVERMALSEDMQKTEVDCWQEGGSFAKRNPLGHWFLNFPDGKAFSANSSYYLYAIPEKEINANPNL
# Key:
# Test in all cases: glycan array binding signal (z-score within array); higher = stronger binding
# Conditions in all cases: glycan notation: IUPAC condensed, linker removed
# Glc(b1-6)Glc = molecular target: Glc(b1-6)Glc
# Method in brief: (§1)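 The binding signal is a Z-score computed within each array and averaged over linkers. Arrays of the same protein sequence at different concentrations or buffers were also averaged together. Data originate from 3228 arrays in the Consortium for Functional Glycomics database, kept only where the protein sequence was available.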
# GlcA(b1-3)Gal = molecular target: GlcA(b1-3)Gal
# Method in brief: as §1
# GlcA(b1-3)GlcNAc = molecular target: GlcA(b1-3)GlcNAc
# Method in brief: as §1
# GlcA(b1-6)Gal = molecular target: GlcA(b1-6)Gal
# Method in brief: as §1
# [1] = molecular target: GlcA3S(b1-3)Gal(b1-4)GlcNAc(b1-2)Man
# Method in brief: as §1
# [2] = molecular target: GlcA3S(b1-3)Gal(b1-4)GlcNAc(b1-3)Gal(b1-4)Glc
# Method in brief: as §1
# [3] = molecular target: GlcNAc(a1-3)Gal(b1-4)GlcNAc
# Method in brief: as §1
# [4] = molecular target: GlcNAc(a1-4)Gal(b1-3)GlcNAc
# Method in brief: as §1
# [5] = molecular target: GlcNAc(a1-4)Gal(b1-4)GalNAc
# Method in brief: as §1
# [6] = molecular target: GlcNAc(a1-4)Gal(b1-4)GlcNAc
# Method in brief: as §1
# [7] = molecular target: GlcNAc(a1-4)Gal(b1-4)GlcNAc(b1-3)Gal(b1-4)Glc
# Method in brief: as §1
# [8] = molecular target: GlcNAc(a1-4)Gal(b1-4)GlcNAc(b1-3)Gal(b1-4)GlcNAc
# Method in brief: as §1
# [9] = molecular target: GlcNAc(a1-4)Gal(b1-4)GlcNAc(b1-3)Gal(b1-4)GlcNAc(b1-3)Gal(b1-4)GlcNAc
# Method in brief: as §1
# [10] = molecular target: GlcNAc(a1-4)Gal(b1-4)GlcNAc(b1-3)Gal(b1-4)[Fuc(a1-3)]GlcNAc(b1-3)Gal(b1-4)[Fuc(a1-3)]GlcNAc
# Method in brief: as §1
# [11] = molecular target: GlcNAc(a1-6)Gal(b1-4)GlcNAc
# Method in brief: as §1
# [12] = molecular target: GlcNAc(b1-2)Gal(b1-3)GalNAc
# Method in brief: as §1
# [13] = molecular target: GlcNAc(b1-2)Man(a1-3)[GlcNAc(b1-2)Man(a1-6)]Man(b1-4)GlcNAc(b1-4)GlcNAc
# Method in brief: as §1
# [14] = molecular target: GlcNAc(b1-2)Man(a1-3)[GlcNAc(b1-2)Man(a1-6)]Man(b1-4)GlcNAc(b1-4)[Fuc(a1-6)]GlcNAc
# Method in brief: as §1
# [15] = molecular target: GlcNAc(b1-2)Man(a1-3)[GlcNAc(b1-4)][GlcNAc(b1-2)Man(a1-6)]Man(b1-4)GlcNAc(b1-4)GlcNAc
# Method in brief: as §1
# [16] = molecular target: GlcNAc(b1-2)Man(a1-3)[GlcNAc(b1-4)][GlcNAc(b1-2)Man(a1-6)]Man(b1-4)GlcNAc(b1-4)[Fuc(a1-6)]GlcNAc
# Method in brief: as §1
# [17] = molecular target: GlcNAc(b1-2)[GlcNAc(b1-4)]Man(a1-3)[GlcNAc(b1-2)Man(a1-6)]Man(b1-4)GlcNAc(b1-4)GlcNAc
# Method in brief: as §1
# [18] = molecular target: GlcNAc(b1-2)[GlcNAc(b1-4)]Man(a1-3)[GlcNAc(b1-4)][GlcNAc(b1-2)Man(a1-6)]Man(b1-4)GlcNAc(b1-4)GlcNAc
# Method in brief: as §1
# [19] = molecular target: GlcNAc(b1-2)[GlcNAc(b1-4)]Man(a1-3)[GlcNAc(b1-4)][GlcNAc(b1-2)[GlcNAc(b1-6)]Man(a1-6)]Man(b1-4)GlcNAc(b1-4)GlcNAc
# Method in brief: as §1
# [20] = molecular target: GlcNAc(b1-2)[GlcNAc(b1-4)]Man(a1-3)[GlcNAc(b1-4)][GlcNAc(b1-2)[GlcNAc(b1-6)]Man(a1-6)]Man(b1-4)GlcNAc(b1-4)[Fuc(a1-6)]GlcNAc
# Method in brief: as §1
# [21] = molecular target: GlcNAc(b1-2)[GlcNAc(b1-6)]Man(a1-6)[GlcNAc(b1-2)Man(a1-3)]Man(b1-4)GlcNAc(b1-4)GlcNAc
# Method in brief: as §1
# [22] = molecular target: GlcNAc(b1-2)[GlcNAc(b1-6)]Man(a1-6)[GlcNAc(b1-2)Man(a1-3)]Man(b1-4)GlcNAc(b1-4)[Fuc(a1-6)]GlcNAc
# Method in brief: as §1
# [23] = molecular target: GlcNAc(b1-2)[GlcNAc(b1-6)]Man(a1-6)[GlcNAc(b1-4)][GlcNAc(b1-2)Man(a1-3)]Man(b1-4)GlcNAc(b1-4)GlcNAc
# Method in brief: as §1
# GlcNAc(b1-3)Fuc = molecular target: GlcNAc(b1-3)Fuc
# Method in brief: as §1
# GlcNAc(b1-3)Gal = molecular target: GlcNAc(b1-3)Gal
# Method in brief: as §1
# [24] = molecular target: GlcNAc(b1-3)Gal(b1-3)GalNAc
# Method in brief: as §1
# GlcNAc(b1-3)Gal(b1-4)Glc = molecular target: GlcNAc(b1-3)Gal(b1-4)Glc
# Method in brief: as §1
# [25] = molecular target: GlcNAc(b1-3)Gal(b1-4)GlcNAc
# Method in brief: as §1
# [26] = molecular target: GlcNAc(b1-3)Gal(b1-4)GlcNAc(b1-2)Man(a1-3)[GlcNAc(b1-3)Gal(b1-4)GlcNAc(b1-2)Man(a1-6)]Man(b1-4)GlcNAc(b1-4)GlcNAc
# Method in brief: as §1
# [27] = molecular target: GlcNAc(b1-3)Gal(b1-4)GlcNAc(b1-2)Man(a1-3)[GlcNAc(b1-3)Gal(b1-4)GlcNAc(b1-2)Man(a1-6)]Man(b1-4)GlcNAc(b1-4)[Fuc(a1-6)]GlcNAc
# Method in brief: as §1
# [28] = molecular target: GlcNAc(b1-3)Gal(b1-4)GlcNAc(b1-2)[GlcNAc(b1-3)Gal(b1-4)GlcNAc(b1-6)]Man(a1-6)[GlcNAc(b1-3)Gal(b1-4)GlcNAc(b1-2)Man(a1-3)]Man(b1-4)GlcNAc(b1-4)GlcNAc
# Method in brief: as §1
# [29] = molecular target: GlcNAc(b1-3)Gal(b1-4)GlcNAc(b1-3)Gal(b1-4)GlcNAc
# Method in brief: as §1
# [30] = molecular target: GlcNAc(b1-3)Gal(b1-4)GlcNAc(b1-3)Gal(b1-4)GlcNAc(b1-2)Man(a1-3)[GlcNAc(b1-3)Gal(b1-4)GlcNAc(b1-3)Gal(b1-4)GlcNAc(b1-2)Man(a1-6)]Man(b1-4)GlcNAc(b1-4)GlcNAc
# Method in brief: as §1
binder,measurement,setting,value
B1,glycan array binding signal (z-score),Glc(b1-6)Glc,-0.397
same,glycan array binding signal (z-score),GlcA(b1-3)Gal,-0.402
same,glycan array binding signal (z-score),GlcA(b1-3)GlcNAc,-0.373
same,glycan array binding signal (z-score),GlcA(b1-6)Gal,-0.474
same,glycan array binding signal (z-score),[1],-0.449
same,glycan array binding signal (z-score),[2],-0.74
same,glycan array binding signal (z-score),[3],-0.067
same,glycan array binding signal (z-score),[4],0.004
same,glycan array binding signal (z-score),[5],-0.551
same,glycan array binding signal (z-score),[6],0.117
same,glycan array binding signal (z-score),[7],-0.491
same,glycan array binding signal (z-score),[8],-0.491
same,glycan array binding signal (z-score),[9],0.383
same,glycan array binding signal (z-score),[10],0.448
same,glycan array binding signal (z-score),[11],1.87
same,glycan array binding signal (z-score),[12],-0.315
same,glycan array binding signal (z-score),[13],-0.457
same,glycan array binding signal (z-score),[14],0.35
same,glycan array binding signal (z-score),[15],-0.413
same,glycan array binding signal (z-score),[16],-0.396
same,glycan array binding signal (z-score),[17],-0.197
same,glycan array binding signal (z-score),[18],-0.493
same,glycan array binding signal (z-score),[19],-0.379
same,glycan array binding signal (z-score),[20],-0.026
same,glycan array binding signal (z-score),[21],0.663
same,glycan array binding signal (z-score),[22],-0.351
same,glycan array binding signal (z-score),[23],-0.454
same,glycan array binding signal (z-score),GlcNAc(b1-3)Fuc,-0.359
same,glycan array binding signal (z-score),GlcNAc(b1-3)Gal,-0.294
same,glycan array binding signal (z-score),[24],-0.008
same,glycan array binding signal (z-score),GlcNAc(b1-3)Gal(b1-4)Glc,0.275
same,glycan array binding signal (z-score),[25],0.048
same,glycan array binding signal (z-score),[26],-0.408
same,glycan array binding signal (z-score),[27],-0.198
same,glycan array binding signal (z-score),[28],0.049
same,glycan array binding signal (z-score),[29],-0.619
same,glycan array binding signal (z-score),[30],1.06
